Assay results as given in PubChem BioAssay AID1963576 (National Center for Advancing Translational Sciences (NCATS), 2024).
In all, about 46,000 compounds went through this assay and about 60 (0.1%) were called active. The inconclusive results got no clear call from the source; some entries with a clear call stand among them for comparison. Calls follow the shape of the dose curve; as a rule, active = well fitted inhibition curve with a large enough effect; inconclusive = small, poorly fitted or top-dose-only effect; inactive = no such curve, though single readings can be large or run the other way. Potencies of inconclusive entries are left out as doubtful fits.

experiment: Primary qHTS assay for Inhibitors of ovarian cancer metastasis using an organotypic tumor microenvironment (TME) model.; also: nearly all actives have a fitted effect of over 65% in size;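 as to Potency: count of GFP cancer cells still attached after washing and fixation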; conditions: SKOV3ip1-GFP adhesion/invasion on 3D omental model, fluorescence; series mostly up to 45.8 µM
How it was run: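 A 3D layer of primary human omental fibroblasts, mesothelial cells, fibronectin and collagen I, grown 48 hr, received SKOV3ip1-GFP cells in serum-free medium plus compounds at 0.36-46 umol/L. After 2 hr RT and 16 hr 37 C, fixed adherent GFP cells were counted; normalized to DMSO and tomatine.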
Potency is read from the fitted curve at half-maximal effect; tags tell the direction and shape of the fitted curve.

Q: Which Potency does the source give for COc1ccccc1C(=O)Nc1ccc(-c2cc(C(F)(F)F)nn2-c2ccccc2)cc1 here?
A: Its Potency is inconclusive [inhibitor, partial curve].

Q: For Cc1ccc(N(CC(=O)NCCSc2ccccc2)S(=O)(=O)c2ccc(F)cc2)cc1, which Potency is on record?
A: Its Potency is inconclusive [inhibitor, single point].

Q: Which Potency does the source give for CCOc1ccccc1NC(=O)Nc1cc(C(=O)NCc2ccc(C)cc2)ccc1N1CCCC1 here?
A: The Potency was inconclusive [inhibitor, single point].

Q: Which Potency does the source give for CC(=O)N1CCc2c(sc3c2c(=O)n(-c2ccccc2Cl)c(=O)n3Cc2cccc(C)c2)C1 here?
A: Its Potency is “inactive”.

Q: With CCOC(=O)N1CCN(Cc2nc3cc(NC(=O)c4ccccc4Cl)ccc3n2C(C)C)CC1 as the compound, how does the Potency read?
A: The Potency was inconclusive [inhibitor, full curve, poor fit].

Q: With O=C(Cn1cc(C(=O)c2ccco2)c2ccccc21)Nc1ccccc1 as the compound, how does the Potency read?
A: Its Potency is inconclusive [inhibitor, single point].

Q: Which Potency does the source give for CCN(CCCNC(=O)c1cc2c(=O)n(CC)c3ccccc3c2s1)Cc1ccccc1 here?
A: The Potency was inconclusive [inhibitor, single point].

Q: For COc1ccc(-c2ccc3c(N4CCOCC4)nc(N4C[C@@H](C)O[C@@H](C)C4)nc3n2)cc1CO, which Potency is on record?
A: The Potency was “inactive”.

Q: Which Potency does the source give for CCN1CCN(c2cc(C)c3cc(NC(=O)c4cccc(Cl)c4)ccc3n2)CC1 here?
A: The Potency was “inactive”.

Q: With CCCC(=O)C1=C(c2ccc(C)cc2)N(C(=O)CCC)n2cnnc2S1 as the compound, how does the Potency read?
A: The Potency was inconclusive [inhibitor, single point].

Q: With Cc1n[nH]c(C)c1CCc1nc2c3ccccc3nc(SCC(=O)Nc3ccc(F)cc3)n2n1 as the compound, how does the Potency read?
A: The Potency was inconclusive [inhibitor, single point].

Q: Which Potency does the source give for O=C(Nc1nnc(S(=O)(=O)N2CCCCC2)s1)c1ccc(F)cc1 here?
A: The Potency was “inactive”.

Q: Which Potency does the source give for CCOc1ccc(CCNC(=O)c2ccc3c(c2)N(Cc2ccccc2)C(=O)c2ccccc2S3=O)cc1OCC (configuration not stated) here?
A: Its Potency is inconclusive [inhibitor, single point].

Q: With CC(C)c1ccc(Cn2ccc3c4c(N)nc(NC5CC5)nc4ccc32)cc1 as the compound, how does the Potency read?
A: Its Potency is inconclusive [inhibitor, single point].

Q: With COc1ccc(OC)c(NC(=O)Cn2cnc3onc(-c4ccc(Cl)cc4)c3c2=O)c1 as the compound, how does the Potency read?
A: Its Potency is inconclusive [inhibitor, full curve, poor fit].

Q: For Cc1ccc(-n2ncc3c(Nc4cccc(C(F)(F)F)c4)ncnc32)cc1C, which Potency is on record?
A: Its Potency is “inactive”.

Q: For Cc1ccc(C(=O)NCC(c2ccco2)S(=O)(=O)c2ccc(Cl)cc2)cc1C (configuration not stated), which Potency is on record?
A: Its Potency is inconclusive [inhibitor, partial curve, poor fit].

Q: For Cc1cc(Br)cc2c1N(Cc1ccccc1OC(C)C)C(=O)C2=O, which Potency is on record?
A: Its Potency is inconclusive [inhibitor, partial curve, poor fit].

Q: With COc1ccc(C)cc1NC(=O)C(Cc1ccccc1)NS(=O)(=O)c1ccc(Br)s1 (configuration not stated) as the compound, how does the Potency read?
A: The Potency was inconclusive [inhibitor, single point].

Q: For CCc1ccc(CNC(=O)C2CCN(c3nnc(C)c4c(C)n(-c5ccc(C)cc5)nc34)CC2)cc1, which Potency is on record?
A: The Potency was inconclusive [inhibitor, partial curve, poor fit].

Q: With Cc1ccn2c(Nc3ccccc3C)c(-c3ccncc3)nc2c1 as the compound, how does the Potency read?
A: The Potency was inconclusive [inhibitor, single point].

Q: Which Potency does the source give for Cc1ccc(S(=O)(=O)c2nc(-c3cccc(Br)c3)oc2N2CCCCCC2)cc1 here?
A: Its Potency is “inactive”.

Q: With COc1cccc(N2CCN(C(=O)CCSCc3ccccc3F)CC2)c1 as the compound, how does the Potency read?
A: Its Potency is inconclusive [inhibitor, single point].

Q: With CC(C)CCN(C(=O)Nc1ccc(Cl)c(Cl)c1)C1CCN(C(C)C)CC1 as the compound, how does the Potency read?
A: Its Potency is inconclusive [inhibitor, single point].

Q: For Cc1ccc(S(=O)(=O)c2nnn3c2nc(NC2CCCCCC2)c2sccc23)cc1C, which Potency is on record?
A: Its Potency is “inactive”.

Q: Which Potency does the source give for COc1ccc(NC(=O)c2ccc3oc(=O)c(S(=O)(=O)c4ccc(F)cc4)cc3c2)cc1OC here?
A: Its Potency is “inactive”.

Q: For CCc1ccc(NC(=O)CCc2c(C)nc3nc(-c4cc(OC)cc(OC)c4)nn3c2C)cc1, which Potency is on record?
A: The Potency was inconclusive [inhibitor, partial curve, poor fit].

Q: With COc1ccc(CNC(=O)Cc2c(C)c3cc4c(C)coc4cc3oc2=O)cc1 as the compound, how does the Potency read?
A: Its Potency is inconclusive [inhibitor, single point].

Q: For COc1cccc(C(=O)Nc2ccc(-n3nncc3-c3ccccc3)cc2)c1OC, which Potency is on record?
A: Its Potency is “inactive”.

Q: Which Potency does the source give for CCCSCCCNC(=O)C1CCN(C(=O)c2cnn(-c3ccccc3)c2-n2cccc2)CC1 here?
A: The Potency was inconclusive [inhibitor, partial curve, poor fit].

Q: Which Potency does the source give for COc1ccc(N(Cc2ccccc2)C(=O)c2nc(S(C)(=O)=O)ncc2Cl)cc1 here?
A: The Potency was inconclusive [inhibitor, full curve, poor fit].

Q: For COc1ccc(Cl)cc1NC(=O)Cn1c(=O)oc2cc(S(=O)(=O)N3CCCCCC3)ccc21, which Potency is on record?
A: The Potency was “inactive”.

Q: For COc1ccc(NC(=O)CCS(=O)(=O)c2nc(-c3cccs3)cc(C(F)(F)F)n2)cc1, which Potency is on record?
A: The Potency was inconclusive [inhibitor, full curve].

Q: With O=C(NCCc1csc(-c2ccc(C(F)(F)F)cc2)n1)c1ccc(F)c(F)c1 as the compound, how does the Potency read?
A: Its Potency is inconclusive [inhibitor, single point].

Q: For N#Cc1ccc(S(=O)(=O)N2CCC(Oc3cccc(C(F)(F)F)c3)CC2)cc1, which Potency is on record?
A: Its Potency is inconclusive [inhibitor, single point].

Q: For COc1ccccc1CNC(=O)C(C)n1ccc2cc(S(=O)(=O)N3CCCC3)ccc21 (configuration not stated), which Potency is on record?
A: The Potency was inconclusive [inhibitor, single point].

Q: With COc1ccc(NC(=O)CCS(=O)(=O)c2nc(-c3ccc4c(c3)OCO4)cc(C(F)(F)F)n2)cc1 as the compound, how does the Potency read?
A: The Potency was inconclusive [inhibitor, single point].

Q: For Nc1ccc(NC(=O)c2cccc(C(=O)Nc3ccc(N)cc3Cl)c2)c(Cl)c1, which Potency is on record?
A: The Potency was inconclusive [inhibitor, single point].

Q: For O=S(=O)(Nc1cc(F)ccc1F)c1ccc2[nH]c3c(c2c1)CCCCC3, which Potency is on record?
A: The Potency was inconclusive [inhibitor, single point].

Q: With CC(C)Oc1cccc(C2CC(=O)Nc3cc4c(cc32)OCO4)c1 (configuration not stated) as the compound, how does the Potency read?
A: The Potency was “inactive”.

Q: With CCc1nnc(SCc2ccc(OC)cc2)c2cc3sc(C)cc3n12 as the compound, how does the Potency read?
A: The Potency was inconclusive [inhibitor, full curve].

Q: Which Potency does the source give for COCCCN1C(=O)c2[nH]nc(-c3ccccc3O)c2C1c1ccc(OCc2ccccc2)cc1 (configuration not stated) here?
A: The Potency was inconclusive [inhibitor, single point].

Q: With Cc1cccc(N2CCN(C(=O)CN3C(=O)COc4ccc(S(=O)(=O)N5CCOCC5)cc43)CC2)c1C as the compound, how does the Potency read?
A: The Potency was “inactive”.

Q: For O=C1CCCC(=O)C1C(=O)c1ccc(C(F)(F)F)cc1[N+](=O)[O-], which Potency is on record?
A: Its Potency is “inactive”.

Q: With CN1[C@H]2CC[C@H]1CC(OC(=O)c1c[nH]c3ccccc13)C2 (some centres not stated) as the compound, how does the Potency read?
A: The Potency was “inactive”.

Q: With O=S(=O)(c1ccc(-c2csc(=Nc3ccc(OC(F)(F)Cl)cc3)n2CCCO)cc1)N1CCCC1 as the compound, how does the Potency read?
A: The Potency was inconclusive [inhibitor, single point].

Q: With Cc1ccc(C(C)C)c(OCC(=O)NCC2(N3CCOCC3)CCCCC2)c1 as the compound, how does the Potency read?
A: The Potency was inconclusive [inhibitor, single point].

Q: For CCN1CCN(CCCNC(=O)Cn2c(-c3cccs3)cc3ccccc32)CC1, which Potency is on record?
A: Its Potency is “inactive”.

Q: With CCCN(CCC)CC(O)Cn1cc(/C=C/C(=O)c2ccc(OC)cc2)c2ccccc21 (configuration not stated) as the compound, how does the Potency read?
A: The Potency was inconclusive [inhibitor, single point].

Q: For COc1cc2nc(SCC(=O)Nc3ccc(F)cc3)n3nc(CCn4c(C)nc5ccccc54)nc3c2cc1OC, which Potency is on record?
A: Its Potency is “inactive”.

Q: Which Potency does the source give for O=C(Cn1nc(C(F)(F)F)c2c1CCCC2)Nc1ccc(Br)cc1 here?
A: The Potency was inconclusive [inhibitor, single point].

Q: Which Potency does the source give for CCOc1ccccc1CNCc1cccn1-c1nnc(N2CCN(c3ccccc3)CC2)s1 here?
A: The Potency was inconclusive [inhibitor, single point].

Q: For CN[C@@H](C)C(=O)N[C@H]1CCCC[C@H]2CC[C@@H](C(=O)N[C@@H](c3ccccc3)c3cn(CCCCc4ccc(CCCCn5cc([C@@H](NC(=O)[C@@H]6CC[C@@H]7CCCC[C@H](NC(=O)[C@H](C)NC)C(=O)N76)c6ccccc6)nn5)cc4)nn3)N2C1=O, which Potency is on record?
A: The Potency was “inactive”.

Q: Which Potency does the source give for CN1CCc2c(sc(NC(=O)CSc3ccccc3)c2-c2nc3ccccc3s2)C1 here?
A: Its Potency is “inactive”.

Q: With COc1ccccc1C(=O)NCC(c1cccnc1)N1CCc2ccccc2C1 (configuration not stated) as the compound, how does the Potency read?
A: The Potency was “inactive”.

Q: Which Potency does the source give for CN(C)CCNC(=O)C1CCN(Cc2cc3ccccc3n2Cc2ccccc2)CC1 here?
A: Its Potency is inconclusive [inhibitor, single point].

Q: Which Potency does the source give for COc1ccc(CCN2C(=O)c3[nH]nc(-c4ccccc4O)c3C2c2ccc(OC)cc2)cc1 (configuration not stated) here?
A: The Potency was inconclusive [inhibitor, single point].

Q: With CC(=O)c1ccc(N2CCN(C(=O)C3CCN(S(=O)(=O)c4c(C)noc4/C=C/c4ccc(C)cc4)CC3)CC2)cc1 as the compound, how does the Potency read?
A: Its Potency is “inactive”.

Q: Which Potency does the source give for COc1cc(OC)cc(-c2cc3nc(C)c(CCC(=O)NCc4ccccc4)c(C)n3n2)c1 here?
A: Its Potency is inconclusive [inhibitor, single point].

Q: Which Potency does the source give for Cc1cc(F)ccc1S(=O)(=O)Nc1ccc2oc3c(c2c1)CC(C)CC3 (configuration not stated) here?
A: The Potency was inconclusive [inhibitor, single point].

Q: Which Potency does the source give for O=C(Nc1ccc(O)c(-c2nc3ccccc3o2)c1)c1sc2ccccc2c1Cl here?
A: Its Potency is inconclusive [inhibitor, single point].

Q: For CC(C)c1ccc(NC(=O)c2ccc3c(c2)CCN3S(=O)(=O)c2ccccc2)cc1, which Potency is on record?
A: Its Potency is “inactive”.
